# B1: hB7V3V2-G1: humanized anti-CD200 antibody capable of mediating effector function (SEQ ID NOS: 15-20) (antibody)
# heavy: QVQLQQSGSELKKPGASVKISCKASGYSFTDYIILWVRQNPGKGLEWIGHIDPYYGSSNYNLKFKGRVTITADQSTTTAYMELSSLRSEDTAVYYCGRSKRDYFDYWGQGTTLTVSSASTKGPSVFPLAPSSKSTSGGTAALGCLVKDYFPEPVTVSWNSGALTSGVHTFPAVLQSSGLYSLSSVVTVPSSSLGTQTYICNVNHKPSNTKVDKRV[letters of human IgG1 Fc not shown]
# light: DIQMTQSPSSLSASIGDRVTITCKASQDINSYLSWFQQKPGKAPKLLIYRANRLVDGVPSRFSGSGSGTDYTLTISSLQPEDFAVYYCLQYDEFPYTFGGGTKLEIKRTVAAPSVFIFPPSDEQLKSGTASVVCLLNNFYPREAKVQWKVDNALQSGNSQESVTEQDSKDSTYSLSSTLTLSKADYEKHKVYACEVTHQGLSSPVTKSFNRGEC
# Test system: mOKT3-activated CD3+ target cells
# Test: ADCC assay: 51Cr-labelled mOKT3-activated CD3+ T cells with autologous CD56+ NK effector cells
# Type: cell-based, human
# Details: effector:target 25:1 or 10:1, 4 hours at 37° C., antibody 0.01-10 μg/mL
# Experimental: To evaluate whether incubation of activated T cells with anti-CD200 antibodies containing a constant region mediating effector function (e.g. an IgG1 constant region) results in the killing of the T cells, T cells were activated and killing assays were set up as described below.
# Human peripheral blood lymphocytes (PBLs) were obtained from normal healthy volunteers by density gradient centrifugation of heparinized whole blood using the Accuspin™ System. […] Eluted cells were washed, counted and resuspended in RPMI 1640 containing 5% heat-inactivated single donor serum, 2 mM L-glutamine, 10 mM Hepes and penicillin/streptomycin. […]
# Human peripheral blood lymphocytes (PBLs) from the same individual were obtained as described above by density gradient centrifugation. […] Eluted cells were washed, counted and resuspended at 1.3×10^6 cells/mL in RPMI 1640 containing 5% heat-inactivated single donor serum, 2 mM L-glutamine, 10 mM Hepes and penicillin/streptomycin. […] At the end of the culture period, the cells were harvested, washed, counted and resuspended in serum-free RPMI containing 2 mM L-glutamine, 10 mM Hepes, 2×10^−5 M 2-mercaptoethanol and penicillin/streptomycin. […]
molecule,measurement,setting,value
B1,ADCC of activated T-cell targets (percent specific lysis),,efficiently killed
same,ADCC of activated T-cell targets (percent specific lysis),listed as V3V2-G1,efficiently mediated ADCC

# — USRE46323E1, “Antibodies to OX-2/CD200 and uses thereof in inhibiting immune responses” (Alexion Pharmaceuticals, Inc., priority 2007, dated 2017)
